# Test results published in PubChem BioAssay AID1030 (National Center for Advancing Translational Sciences (NCATS), 2008).
# In all, about 220,000 compounds went through this assay and about 16,000 (7.3%) were called active. Inconclusive results, whose numbers are uncertain, are shown with a selection of clear calls. Calls follow the shape of the dose curve; as a rule, active = well fitted inhibition curve with a large enough effect (not every such curve was filed as active); inconclusive = small, poorly fitted or top-dose-only effect, or another doubt; inactive = no such curve, though single readings can be large or run the other way. Potencies of inconclusive entries are left out as doubtful fits.
# Target: Aldehyde dehydrogenase 1A1 (Homo sapiens) (UniProt P00352)
# Chain of UniProt P00352 (P00352 whole entry, looked up): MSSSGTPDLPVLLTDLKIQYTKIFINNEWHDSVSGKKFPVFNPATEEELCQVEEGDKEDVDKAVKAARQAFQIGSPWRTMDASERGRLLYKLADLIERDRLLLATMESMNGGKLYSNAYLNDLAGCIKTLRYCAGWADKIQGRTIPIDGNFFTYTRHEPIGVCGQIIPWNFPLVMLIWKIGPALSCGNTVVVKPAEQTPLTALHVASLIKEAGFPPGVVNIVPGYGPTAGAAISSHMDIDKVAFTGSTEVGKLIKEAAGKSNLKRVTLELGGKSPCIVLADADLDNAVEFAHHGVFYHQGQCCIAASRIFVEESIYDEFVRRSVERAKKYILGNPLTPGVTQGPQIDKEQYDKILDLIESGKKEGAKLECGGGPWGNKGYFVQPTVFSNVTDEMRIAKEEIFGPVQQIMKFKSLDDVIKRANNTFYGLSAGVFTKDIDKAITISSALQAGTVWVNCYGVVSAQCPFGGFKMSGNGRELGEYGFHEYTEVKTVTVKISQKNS
# Experiment: qHTS Assay for Inhibitors of Aldehyde Dehydrogenase 1 (ALDH1A1)
# Conditions: Purified ALDH1A1, NADH fluorescence, propionaldehyde substrate; series mostly up to 75.3 µM
# Potency is read from the fitted curve at half-maximal effect; tags tell the direction and shape of the fitted curve.
row,SMILES,Potency
1,Cc1csc2ncc(C(=O)NC(C)c3ccccc3)c(=O)n12 (centres undefined),"inconclusive [inhibitor, partial curve]"
2,CCCC(=O)Nc1ccc(-c2nc3cc(C)c(C)cc3o2)c(O)c1,"inconclusive [inhibitor, full curve]"
3,C/C(=N\Nc1ccc(Cl)c(C(=O)O)c1)c1ccc2c(c1)OCO2,"inconclusive [inhibitor, single point]"
4,COc1ccccc1C1NC=C([N+](=O)[O-])C=C1[N+](=O)[O-] (centres undefined),active: 8.91 µM
5,COc1cc(C(=S)NCc2ccccc2)cc(Br)c1O,active: 1.78 µM
6,CN(C)c1ncc2nc(-c3cccs3)c(=O)n(CCc3ccccc3)c2n1,"inconclusive [inhibitor, partial curve]"
7,CCCCc1ccc(S(=O)(=O)NNC(=S)NCc2ccco2)cc1,inactive
8,Cc1ccc(NC(=O)CC(=O)Nc2ccc(C)cc2)cc1,inactive
9,S=c1[nH]ncn1NCc1ccc(Cl)cc1Cl,active: 1.41 µM
10,COCCSc1ccccc1C(=O)Nc1nnc(C)s1,inactive
11,CCCCC(NC(=O)c1cccc(Br)c1)C(=O)O (centres undefined),inactive
12,O=c1[nH]c2cc3c(cc2cc1CN(Cc1ccco1)C(=S)NCC1CCCO1)OCCO3 (centres undefined),inactive
13,CC(CN1CCN(c2ccccc2)CC1)c1ccccc1 (centres undefined),"inconclusive [inhibitor, single point]"
14,COc1ccccc1C(=O)NNC(=O)c1ccc(NC(=O)CC(C)C)cc1,inactive
15,CC12CCC(C(=O)N(CSC(=S)N/N=C\c3ccccc3Cl)C1=O)C2(C)C (centres undefined),"inconclusive [inhibitor, single point]"
16,CC(C)OC(=O)c1cccc(C(=O)O)n1,inactive
17,CCOc1ccc(S(=O)(=O)N2CCCCC2)c(C)c1C,"inconclusive [inhibitor, single point]"
18,O=C(CSCc1ccccc1F)NCc1ccccc1,"inconclusive [inhibitor, partial curve]"
19,O=C(CN1C(=O)/C(=C/c2c(F)cccc2Cl)Oc2ccccc21)NCc1ccco1,"inconclusive [inhibitor, single point]"
20,O=C(CSc1ccc(-c2ccco2)nn1)N1CCCC1,"inconclusive [inhibitor, partial curve]"
21,Cc1cc(C(=O)N/N=C/c2cccn2C)n[nH]1,"inconclusive [inhibitor, single point]"
22,CC(=O)c1ccc(OC(=O)c2cc3ccccc3oc2=O)cc1,inactive
23,COc1cc(N2CCCC2)c(OC)cc1C=O,"inconclusive [inhibitor, single point]"
24,c1ccc2sc(-c3ccc4c(c3)OCO4)nc2c1,"inconclusive [inhibitor, partial curve]"
25,O=C(CN1CCN(S(=O)(=O)c2ccc(Br)cc2)CC1)Nc1ccc(F)cc1,active: 31.6 µM

row,SMILES,Potency
1,CCCCCCC1CC(=O)NC(=S)N1 (centres undefined),active: 3.98 µM
2,c1ccc(-c2cnnc(N3CCCCC3)n2)cc1,"inconclusive [inhibitor, partial curve]"
3,Cc1ccc2[nH]c(=O)c(CN(CC3CCCO3)S(=O)(=O)c3c(C)ccc4nsnc34)cc2c1 (centres undefined),"inconclusive [inhibitor, partial curve]"
4,CC1=C(C(N)=O)C(c2ccncc2)n2nc(-c3ccccc3Cl)nc2N1 (centres undefined),inactive
5,COCCN(CCOC)Cc1c(O)ccc2c3c(c(=O)oc12)CCC3,"inconclusive [inhibitor, partial curve]"
6,CC(=O)c1cccc(NC(=O)CCS(=O)(=O)c2cccc3nonc23)c1,"inconclusive [inhibitor, single point]"
7,Cc1cc(C)cc(NC(=S)NCCc2ccc(S(N)(=O)=O)cc2)c1,"inconclusive [inhibitor, single point]"
8,Cc1cccc(C2=NN(c3ccccc3)[C@@H](C(=O)N3CCOC3=O)[C@@H]2c2ccccc2)c1,"inconclusive [inhibitor, single point]"
9,COc1ccc2nc3sc(C(=O)NCCCN4CCc5ccccc5C4)cc3cc2c1,"inconclusive [inhibitor, single point]"
10,COCCn1c(=O)c(-c2ccc(Cl)cc2)nc2cnc(Oc3ccccc3)nc21,"inconclusive [inhibitor, single point]"
11,Clc1ccc(C2Nc3ccccc3-n3cccc32)cc1 (centres undefined),"inconclusive [inhibitor, single point]"
12,CCN(CC)S(=O)(=O)c1ccc(S(=O)(=O)Nc2ccc(C(=O)N3CCCC3)cc2)cc1,active: 0.631 µM
13,CN(C)c1nc(Oc2ccc(C(=O)OCC(=O)Nc3ccccc3)cc2)nc(N(C)C)n1,inactive
14,O=c1c(-c2cc(F)cc(F)c2)nc2cnc(Oc3ccccc3)nc2n1C[C@H]1CCCO1,"inconclusive [inhibitor, partial curve]"
15,Cc1cc(C(=O)Nc2cccc(O)c2)co1,"inconclusive [inhibitor, single point]"
16,COc1ccc(-c2oc(NC(=O)CCl)c(C#N)c2-c2ccc(OC)cc2)cc1,active: 2.51 µM
17,O=C(c1ccccc1NS(=O)(=O)c1cccc([N+](=O)[O-])c1)N1CCOCC1,inactive
18,CCOC(=O)c1[nH]c2ccccc2c1NC(=S)Nc1ccccc1,"inconclusive [inhibitor, single point]"
19,CC(C)(C)c1ccc(C(=O)Nc2cccc([N+](=O)[O-])c2)cc1,"inconclusive [inhibitor, single point]"
20,CS(=O)(=O)N1CCN(C(=O)c2cc(-c3ccncc3)nc3ccc(Cl)cc23)CC1,"inconclusive [inhibitor, partial curve]"
21,COc1ccc(-n2c(=O)c(-c3ccc(Cl)cc3)nc3cnc(N(C)C)nc32)cc1,"inconclusive [inhibitor, full curve]"
22,Cc1ccc(O)c(CNc2cccc3cccnc23)c1,inactive
23,CCSC1=C(C#N)C(c2ccc(C)s2)CC(=O)N1 (centres undefined),"inconclusive [inhibitor, partial curve]"
24,Cc1cccc(OC(=O)CN2C(=O)C3C4CCC(C4)C3C2=O)c1C (centres undefined),"inconclusive [inhibitor, partial curve]"
25,O=C1CC(N(CCc2ccccc2)C(=S)Nc2ccccc2)C(=O)N1c1ccc(Br)cc1 (centres undefined),"inconclusive [inhibitor, single point]"

row,SMILES,Potency
1,CC(=O)C1=C(O)C(=O)N(Cc2cccnc2)C1c1ccccc1Cl (centres undefined),"inconclusive [inhibitor, single point]"
2,O=C1OCCC1Sc1nc2ccccc2c(=O)n1Cc1ccccc1 (centres undefined),"inconclusive [inhibitor, single point]"
3,Cc1cc(CNC(=O)Cn2nc(C)c([N+](=O)[O-])c2C)c2ccccc2n1,"inconclusive [inhibitor, single point]"
4,Cc1cccc(NC(=O)c2ccc(N3CCCCC3)c([N+](=O)[O-])c2)n1,active: 12.6 µM
5,COc1ccc(C(=O)Nc2ccccc2C(=O)N/N=C/c2ccco2)cc1,"inconclusive [inhibitor, partial curve]"
6,COc1cccc(/C(O)=C2/C(=O)C(=O)N(CCN3CCOCC3)C2c2cccnc2)c1 (centres undefined),active: 3.55 µM
7,Cc1ccc2nc(C(F)OC(F)(F)F)[nH]c2c1 (centres undefined),active: 0.708 µM
8,Cc1ccc(SCc2nnc(NC(=O)c3ccccc3)s2)cc1,inactive
9,CC[C@H](C)[C@@H](NC(=O)O[C@@H]1C(=O)c2cc(OC)ccc2O[C@H]1c1cccc(OC)c1)C(=O)OC,inactive
10,C=CCNC(=O)CSc1ccc(Cl)cc1,inactive
11,CCc1c(O)nc(SCC(=O)Nc2ccc3c(c2)CCC3)[nH]c1=O,"inconclusive [inhibitor, partial curve]"
12,Cc1ccc(C)c(S(=O)(=O)NC(C)C(=O)Nc2ccc(-c3nc4ccccc4s3)cc2)c1 (centres undefined),"inconclusive [inhibitor, partial curve]"
13,COc1ccc(Cn2c(-c3ccc(OC)cc3)nc3c(c(=O)c4ccccc4n3C)c2=O)cc1,active: 0.282 µM
14,Cc1snc(SCC(=O)c2ccc(F)cc2)c1C#N,"inconclusive [inhibitor, single point]"
15,COc1ccc(CCN=C(C)C2=C(O)C(c3ccccc3)OC2=O)cc1OC (centres undefined),"inconclusive [inhibitor, single point]"
16,COCCN(C(=O)CCc1nnc(CCc2c[nH]c3ccccc23)o1)C(C)C,inactive
17,Cc1nc(N2CCN(c3ccccc3)CC2)nc2c1C(=O)CCC2,"inconclusive [inhibitor, single point]"
18,COc1cccc(CN2CC(O)=C(c3nc(-c4ccc(Cl)cc4)cs3)C2=N)c1,"inconclusive [inhibitor, single point]"
19,CCc1c(C)sc(NC(=O)/C=C/C(=O)O)c1C(N)=O,"inconclusive [inhibitor, single point]"
20,CC(Oc1ccc(Cl)cc1Cl)c1nc(-c2ccc(NC(=O)c3cccnc3)cc2)no1 (centres undefined),inactive
21,CCOc1ccc(/C=C2/Sc3ccc(C(=O)N4CCN(C(=O)c5ccco5)CC4)cc3N(C)C2=O)cc1OC,"inconclusive [inhibitor, single point]"
22,CN(Cc1ccccc1)C(=O)c1ccco1,inactive
23,O=C(CSc1nnc(-c2ccco2)n1-c1ccccc1)NCCc1ccccc1,inactive
24,COc1ccc(C(c2c(O)ccc3ccccc23)N2CCOCC2)c(OC)c1 (centres undefined),"inconclusive [inhibitor, single point]"
